Out of some 340,000 compounds screened, about 470 (0.14%) were called active. The inconclusive results got no clear call from the source; some entries with a clear call stand among them for comparison.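 Rule for the calls: active = mean activation of 30% or more, with every replicate also reaching 30%; inconclusive = mean activation of 30% or more but some replicate falls short; inactive = the rest.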
test: small molecules raising miR-122 sensor signal – cell-based, Huh7 psiCHECK-miR122, Renilla luciferase, single point, primary screen (AID 623901); details: 48 h, at 12.5 µM, active compounds read high;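 note: 0% = median of neutral control wells and 100% = median of positive control wells; higher luciferase signal means stronger suppression of miR-122 activity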

activation, inactive:
C[C@@H]1CN([C@H](C)CO)S(=O)(=O)c2ccc(-c3ccc(C(=O)N(C)C)cc3)cc2O[C@H]1CN(C)C(=O)Cc1ccccn1 -3.62%
C[C@@H]1CN([C@@H](C)CO)C(=O)c2cc(-c3ccc(C(=O)N(C)C)cc3)cnc2O[C@@H]1CN(C)C(=O)c1cccnc1 -2.5%
C[C@H](CO)N1C[C@H](C)[C@@H](CN(C)Cc2ccccc2C(=O)O)Oc2ncc(C3=CCCCC3)cc2C1=O -20.3%
C[C@@H]1CN([C@@H](C)CO)C(=O)c2cc(-c3cncnc3)cnc2O[C@H]1CN(C)Cc1cncnc1 9.2%
CCCN(C)C[C@@H]1Oc2ncc(-c3ccccc3OC)cc2C(=O)N([C@H](C)CO)C[C@H]1C 9.32%
C[C@H]1CN([C@@H](C)CO)C(=O)c2cc(C3=CCCCC3)cnc2O[C@H]1CN(C)Cc1cccc(F)c1 5.08%
CC(=O)N(C)C[C@@H]1Oc2cc(C#C[C@@H](C)O)ccc2S(=O)(=O)N([C@H](C)CO)C[C@@H]1C 4.13%
CCC(=O)N(C)C[C@@H]1Oc2cc(-c3cccc(C#N)c3)ccc2S(=O)(=O)N([C@@H](C)CO)C[C@H]1C 1.02%
COc1ccccc1-c1ccc2c(c1)O[C@@H](CN(C)S(=O)(=O)c1ccccc1)[C@@H](C)CN([C@@H](C)CO)S2(=O)=O 0.569%
C[C@H](CO)N1C[C@H](C)[C@@H](CN(C)CC2CCCC2)Oc2ncc(C#Cc3cccc(F)c3)cc2C1=O 6.42%
CC(=O)N(C)C[C@@H]1Oc2cc(C#C[C@H](C)O)ccc2S(=O)(=O)N([C@H](C)CO)C[C@H]1C 6.97%
C[C@H](CO)N1C[C@H](C)[C@@H](CN(C)Cc2ccccn2)Oc2cc(-c3cccc(C#N)c3)ccc2S1(=O)=O -38.7%
C[C@H](O)C#Cc1ccc2c(c1)O[C@H](CN(C)CC1CCOCC1)[C@H](C)CN([C@@H](C)CO)S2(=O)=O 5.32%
C[C@H](CO)N1C[C@H](C)[C@@H](CN(C)C(=O)C2CCCCC2)Oc2cc(C#Cc3ccncc3)ccc2S1(=O)=O 9.86%
COCC#Cc1cnc2c(c1)C(=O)N([C@@H](C)CO)C[C@H](C)[C@@H](CN(C)S(=O)(=O)c1cccc(OC)c1)O2 -6.2%
COc1ccccc1NS(=O)(=O)c1cc(Cl)ccc1OC -91%
CCC(=O)N(C)C[C@H]1Oc2cc(-c3cccnc3)ccc2S(=O)(=O)N([C@@H](C)CO)C[C@@H]1C -7.28%

activation, active:
Cc1ccccc1NCN1C(=O)C2C3C=CC(C3)C2C1=O (configuration not stated) 33.6%
C/C=C/c1ccc2c(c1)O[C@H](CN(C)C(=O)c1cnccn1)[C@H](C)CN([C@H](C)CO)S2(=O)=O 32.9%
C[C@@H]1CN([C@@H](C)CO)C(=O)Cc2cc(NC(=O)C3CCCCC3)ccc2O[C@H]1CN(C)Cc1ccc(-c2ccccc2)cc1 33%
NCC12CC3CC(C1)CC(c1ccc(Br)cc1)(C3)C2 34.3%

activation, inconclusive:
CCOc1cc(-c2nccc3cc(OC)c(OC)cc23)cc(OCC)c1OCC 33%
CNC(=O)C[C@H]1CC[C@@H]2[C@H](COc3ccc(NC(=O)Nc4ccc(F)c(F)c4)cc3C(=O)N2C)O1 41.7%
COCC(=O)N1[C@H](CO)[C@@H](c2ccccc2)[C@H]1CNC(=O)c1ccccn1 50%
CCC(=O)N(C)C[C@H]1Oc2cc(C#CC3CCCCC3)ccc2S(=O)(=O)N([C@@H](C)CO)C[C@H]1C 37%
O=[N+]([O-])c1ccc(CSC2=NCCS2)cc1 31%
C[C@@H]1CCCCO[C@@H](CN(C)CC2CCCCC2)[C@H](C)CN([C@H](C)CO)C(=O)c2cc(NC(=O)Nc3cccc4ccccc34)ccc2O1 30.3%
CC(=O)N1[C@H](CO)[C@@H](c2ccccc2)[C@H]1CN(C(=O)NC(C)C)C1CCCC1 50%
CCC(=O)N1[C@H](CN(CC)C(=O)c2ccccc2)[C@@H](c2ccccc2)[C@@H]1CO 30.5%
COc1cccc(CNC(=O)C[C@@H]2CC[C@@H]3[C@@H](COc4ccc(NC(C)=O)cc4C(=O)N3C)O2)c1 33.3%
COC(=O)C[C@@H]1CC[C@@H]2[C@H](COc3ccc(NC(=O)c4cc(F)cc(F)c4)cc3C(=O)N2C)O1 33.3%
O=C(NC[C@@H]1[C@H](c2ccccc2)[C@@H](CO)N1Cc1cccnc1)c1ccccn1 41.7%
CCC(=O)N1[C@H](CO)[C@H]2c3ccccc3N(C(=O)CC(F)(F)F)C[C@H]21 33.3%
O=[N+]([O-])c1cncc([N+](=O)[O-])c1Nc1ccccc1Cl 33.3%
CN1C(=O)c2cc(NC(=O)c3ccc4c(c3)OCO4)ccc2OC[C@H]2O[C@@H](CC(=O)O)CC[C@@H]21 33.3%
CCn1nnnc1SCC(=O)Nc1nnc(C(C)C)s1 35.6%
CN1C(=O)c2cc(NC(=O)c3ccno3)ccc2OC[C@H]2O[C@@H](CC(=O)NCC3CC3)CC[C@@H]21 33.3%
COC(=O)C[C@H]1CC[C@H]2[C@@H](COc3ccc(NC(=O)Nc4c(C)noc4C)cc3C(=O)N2C)O1 37.8%
Cc1ccc(C(=O)N2CCN(c3ccc(NC(=O)COc4ccccc4C)cc3)CC2)cc1 30.3%
COC(=O)C[C@@H]1CC[C@@H]2[C@@H](COc3ccc(NC(=O)c4cscn4)cc3C(=O)N2C)O1 32.5%
O=C(NCc1ccc(Cl)cc1)c1cc(=O)nc2sc(-c3ccccc3)nn12 40.8%
C[C@H](CO)N1C[C@H](C)[C@H](CN(C)C(=O)Nc2cccc3ccccc23)Oc2ncc(C#Cc3ccc(C(F)(F)F)cc3)cc2C1=O 30.7%

Reference: PubChem BioAssay AID623901 (Broad Institute, 2012)
